Hit rate of the full screen: of about 260,000 compounds, about 890 (0.34%) were called active. This list was built around the results that the source calls inconclusive (neither active nor inactive); the mix of calls is not that of the screen. Calls follow the shape of the dose curve; as a rule, active = well fitted activation curve with a large enough effect; inconclusive = small, poorly fitted or top-dose-only effect; inactive = no such curve, though single readings can be large or run the other way. No potency is given beside an inconclusive call; the fits are too rough.
biological target: Pyruvate kinase PKM (Homo sapiens) (UniProt P14618); assay: qHTS Assay for Activators of Human Muscle isoform 2 Pyruvate Kinase; settings: purified PKM2, Kinase-Glo ATP luminescence; Potency: activation; activation: at 57.5 µM (top of the series), 0% is enzyme alone, no compound; also: nearly all actives have a fitted effect of over 55% in size
In short: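 Purified hPK-M2 (>95%) run at intermediate activity with 0.1 mM ADP and 0.5 mM PEP in 50 mM imidazole pH 7.2, KCl, MgCl2; 1 h room temperature. ATP formed read by Kinase-Glo luminescence; normalized to uninhibited and no-enzyme controls.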
% is scaled to controls: 0 for no effect and ±100 for the full control effect; potency is read from the fitted curve at half-maximal effect; tags tell the direction and shape of the fitted curve.

UniProt P14618, sequence (P14618 whole entry, looked up, canonical isoform): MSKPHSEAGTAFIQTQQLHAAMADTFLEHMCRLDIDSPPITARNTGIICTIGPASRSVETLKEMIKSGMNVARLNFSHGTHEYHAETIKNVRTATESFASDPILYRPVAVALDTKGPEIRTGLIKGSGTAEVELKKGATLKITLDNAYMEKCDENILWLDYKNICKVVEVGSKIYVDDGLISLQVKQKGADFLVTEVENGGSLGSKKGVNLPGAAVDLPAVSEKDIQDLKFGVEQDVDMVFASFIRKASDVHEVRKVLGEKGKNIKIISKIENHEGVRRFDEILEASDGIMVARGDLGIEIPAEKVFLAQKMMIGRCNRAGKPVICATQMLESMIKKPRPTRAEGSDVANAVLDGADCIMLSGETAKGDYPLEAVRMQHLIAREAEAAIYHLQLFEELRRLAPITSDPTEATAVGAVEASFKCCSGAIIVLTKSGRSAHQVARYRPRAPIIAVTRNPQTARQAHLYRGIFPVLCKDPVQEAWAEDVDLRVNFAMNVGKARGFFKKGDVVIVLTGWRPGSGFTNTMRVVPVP

**Q.** How did the Potency turn out when `NC(=O)CC(NC(=O)Cc1cccc2ccccc12)c1ccc(N2CCc3ccccc3C2)c([N+](=O)[O-])c1` (stereo unspecified) was run?
**A.** inconclusive [rising, partial curve]

**Q.** With `O=C(c1cnn(C(=O)c2ccccc2)c1)c1ccccc1O` as the compound, how does the “activation” value read?
**A.** inactive: -0.679%

**Q.** With `COc1cc(C(=O)NC(=S)Nc2ccc3c(c2)OCO3)cc(OC)c1OC` as the compound, how does the “activation” value read?
**A.** inactive: -4.47%

**Q.** For `CNC(=S)NNC(=O)c1noc(C)c1C(=O)N1CCN(C(c2ccccc2)c2ccccc2)CC1`, which “activation” value is on record?
**A.** inactive: -5.24%

**Q.** Which “activation” value does the source give for `COCCNC(=S)N/N=C(\C)c1ccc2cc(OC)ccc2c1` here?
**A.** inactive: -2.08%

**Q.** `COc1ccc2nc(N3CCCCC3)c(C#N)cc2c1` was tested. Which “activation” value did it give?
**A.** inactive: 13.6%

**Q.** Which Potency does the source give for `CCCn1c(SCC(=O)c2cc(OC)ccc2OC)nnc1-c1ccco1` here?
**A.** inconclusive [rising, partial curve]

**Q.** How did the Potency turn out when `CC(C)(C)C(=O)/C(=C/c1ccncc1)n1cncn1` was run?
**A.** inconclusive [rising, single point]

**Q.** `COCCNc1nc2c(c(=O)n(Cc3ccccc3F)c(=O)n2C)n1C` was tested. Which “activation” value did it give?
**A.** inactive: 14%

**Q.** How did the “activation” value turn out when `O=C(c1ccc2c(c1)OCO2)N1CCN(c2ccc(Cl)cc2)CC1` was run?
**A.** inactive: -3.09%

**Q.** How did the Potency turn out when `CC(=O)NS(=O)(=O)c1ccc2c(c1)C(=O)c1cc(S(=O)(=O)NC(C)=O)ccc1-2` was run?
**A.** inconclusive [rising, single point]

**Q.** How did the Potency turn out when `CCOCCn1c(CN2CCCCC2)nc2c1c(=O)n(C)c(=O)n2C` was run?
**A.** inconclusive [rising, single point]

**Q.** For `Nc1nc2ncc(C(=O)c3cc(Cl)cc(Cl)c3O)cc2s1`, which “activation” value is on record?
**A.** inactive: -24.5%

**Q.** `COc1cccc2c(C)nc(Nc3nc(CSc4nnc(C)s4)cc(=O)[nH]3)nc12` was tested. Which Potency did it give?
**A.** inconclusive [rising, partial curve]

**Q.** With `Cc1ccc(S(=O)(=O)CCSc2ccc(C(F)(F)F)cn2)cc1` as the compound, how does the Potency read?
**A.** inconclusive [rising, single point]

**Q.** `COC(=O)[C@@]1(Cc2ccccc2)[C@H]2c3cc(C(=O)N4CCCC4)n(Cc4ccc(C)o4)c3C[C@H]2CN1C(=O)c1ccccc1` was tested. Which Potency did it give?
**A.** inconclusive [rising, single point]

**Q.** With `O=C(CSc1cn(CCNC(=O)c2ccc3ccccc3c2)c2ccccc12)NCc1ccco1` as the compound, how does the Potency read?
**A.** inconclusive [rising, single point]

**Q.** For `COCC(=O)Nc1ccc(OC)c(Cl)c1`, which “activation” value is on record?
**A.** inactive: 0.0559%

**Q.** `O=C(NCc1ccccc1Cl)C1CCN(S(=O)(=O)c2ccc(F)cc2)CC1` was tested. Which Potency did it give?
**A.** inconclusive [rising, partial curve]

**Q.** `Cc1cc(C)n(CCc2nc(-c3ccc(C)o3)cs2)n1` was tested. Which Potency did it give?
**A.** inconclusive [rising, full curve]

**Q.** With `O=C(O)COc1ccccc1/C=N/NC(=O)CN1CCN(S(=O)(=O)c2ccc(Br)cc2)CC1` as the compound, how does the Potency read?
**A.** inconclusive [rising, single point]

**Q.** `Clc1ccc2oc(-c3cccnc3)nc2c1` was tested. Which “activation” value did it give?
**A.** inactive: 3.16%

**Q.** With `COc1ccc(-c2nnn(CC(=O)N(CCN3CCOCC3)C(C(=O)NC3CCCC3)c3ccco3)n2)cc1` (stereo unspecified) as the compound, how does the Potency read?
**A.** inconclusive [rising, single point]

**Q.** `O=C(NCc1cccc(C(F)(F)F)c1)N1CCN(S(=O)(=O)c2ccccc2F)CC1` was tested. Which Potency did it give?
**A.** inconclusive [rising, partial curve]

**Q.** With `O=C(CN1CCN(S(=O)(=O)c2ccc(F)cc2)CC1)Nc1cc(C(F)(F)F)ccc1Cl` as the compound, how does the “activation” value read?
**A.** inactive: 5.89%

**Q.** For `CCn1c(O)c(/C=N/NC(=O)c2ccncc2)c(=O)n(CC)c1=S`, which “activation” value is on record?
**A.** inactive: -19.5%

**Q.** `COc1c(O)c(O)cc2c1oc1c3ccccc3oc(=O)c21` was tested. Which Potency did it give?
**A.** inconclusive [rising, full curve]

**Q.** Which Potency does the source give for `COC(=O)C1=C(C)N(Cc2ccco2)C(=O)/C1=C\c1ccc([N+](=O)[O-])cc1` here?
**A.** inconclusive [rising, single point]

**Q.** With `c1ccc2c(c1)ccc1nnc(SCc3ccc4c(c3)OCO4)n12` as the compound, how does the Potency read?
**A.** inconclusive [rising, partial curve]

**Q.** For `N#Cc1cn(-c2ccccc2)nc1-c1cc2ccccc2oc1=O`, which Potency is on record?
**A.** inconclusive [rising, single point]

**Q.** For `O=C(CCSc1nnc2ccccn12)Nc1ccc(F)cc1`, which “activation” value is on record?
**A.** inactive: 5.25%

**Q.** `Cc1[nH]c2ccccc2c1C(=O)CSc1ccccn1` was tested. Which Potency did it give?
**A.** inconclusive [rising, single point]

**Q.** For `COc1ccc(-c2nnc(N3CCCCC3)c3ccccc23)cc1`, which Potency is on record?
**A.** inconclusive [rising, single point]

**Q.** For `CCCN1CN(Cc2ccccc2)CC2=C1CC(C)(C)CC2=O`, which Potency is on record?
**A.** inconclusive [rising, partial curve, poor fit]

**Q.** For `Cc1ccc(OCc2nnc(SC(C)C(=O)O)n2-c2ccccc2)cc1` (stereo unspecified), which Potency is on record?
**A.** inconclusive [rising, single point]

**Q.** How did the Potency turn out when `Cc1c(C(=O)N2CCOCC2)c(S(=O)(=O)Nc2ccc(OC(F)(F)F)cc2)c(C)n1C` was run?
**A.** inconclusive [rising, single point]

**Q.** How did the “activation” value turn out when `COCCn1c(COc2cccc(OC)c2)nnc1SCC(=O)NC1CCCC1` was run?
**A.** inactive: -11%

**Q.** For `COC(=O)c1ccc(C(=O)OCCCc2nc3ccc(N)cc3[nH]2)cc1`, which Potency is on record?
**A.** inconclusive [rising, partial curve, poor fit]

**Q.** For `CN1/C(=C/c2cc[n+](C)c3ccccc23)C=Cc2ccccc21`, which “activation” value is on record?
**A.** inactive: -28.7%

**Q.** How did the “activation” value turn out when `CN1C(=O)/C(=C/c2ccc(-c3ccccc3[N+](=O)[O-])o2)SC1=Nc1ccc(Cl)c(C(=O)O)c1` was run?
**A.** inactive: 25.8%

**Q.** How did the Potency turn out when `NS(=O)(=O)c1ccc2c(c1)C(=NO)c1cc(S(N)(=O)=O)ccc1-2` was run?
**A.** active: 3.98 µM

**Q.** For `CC(=C\C(=O)O)/C(=C/c1ccc(C)o1)C(=O)O`, which Potency is on record?
**A.** inconclusive [rising, partial curve, poor fit]

**Q.** For `Cc1n[nH]c(=S)n(NC(=O)/C=C/C(=O)Nn2c(=S)[nH]nc(C)c2=O)c1=O`, which Potency is on record?
**A.** inconclusive [rising, single point]

**Q.** With `CC(=O)Nc1cccn(Cc2c(Cl)cccc2Cl)c1=O` as the compound, how does the Potency read?
**A.** inconclusive [rising, partial curve]

**Q.** Which Potency does the source give for `CCCCNC(=O)CSc1nc2cc3c(cc2c(=O)n1Cc1ccco1)OCO3` here?
**A.** inconclusive [rising, single point]

**Q.** Which Potency does the source give for `Cc1ccccc1CNC(=O)Nc1cccs1` here?
**A.** inconclusive [rising, partial curve]
